Source: article PMC4336329 (PLoS ONE, 2015)
Hit rate of the full screen: of about 310,000 compounds, about 2,200 (0.71%) showed an effect of 50% or more. Effects have a minus sign here. The list shows a part of the results.

Biological target: human ether-à-go-go-related gene (hERG) potassium channel (human, UniProt Q12809)
Assay: primary screen, population patch clamp on CHO cells stably expressing hERG

Chain of human ether-à-go-go-related gene (hERG) potassium channel (Q12809 whole entry, looked up): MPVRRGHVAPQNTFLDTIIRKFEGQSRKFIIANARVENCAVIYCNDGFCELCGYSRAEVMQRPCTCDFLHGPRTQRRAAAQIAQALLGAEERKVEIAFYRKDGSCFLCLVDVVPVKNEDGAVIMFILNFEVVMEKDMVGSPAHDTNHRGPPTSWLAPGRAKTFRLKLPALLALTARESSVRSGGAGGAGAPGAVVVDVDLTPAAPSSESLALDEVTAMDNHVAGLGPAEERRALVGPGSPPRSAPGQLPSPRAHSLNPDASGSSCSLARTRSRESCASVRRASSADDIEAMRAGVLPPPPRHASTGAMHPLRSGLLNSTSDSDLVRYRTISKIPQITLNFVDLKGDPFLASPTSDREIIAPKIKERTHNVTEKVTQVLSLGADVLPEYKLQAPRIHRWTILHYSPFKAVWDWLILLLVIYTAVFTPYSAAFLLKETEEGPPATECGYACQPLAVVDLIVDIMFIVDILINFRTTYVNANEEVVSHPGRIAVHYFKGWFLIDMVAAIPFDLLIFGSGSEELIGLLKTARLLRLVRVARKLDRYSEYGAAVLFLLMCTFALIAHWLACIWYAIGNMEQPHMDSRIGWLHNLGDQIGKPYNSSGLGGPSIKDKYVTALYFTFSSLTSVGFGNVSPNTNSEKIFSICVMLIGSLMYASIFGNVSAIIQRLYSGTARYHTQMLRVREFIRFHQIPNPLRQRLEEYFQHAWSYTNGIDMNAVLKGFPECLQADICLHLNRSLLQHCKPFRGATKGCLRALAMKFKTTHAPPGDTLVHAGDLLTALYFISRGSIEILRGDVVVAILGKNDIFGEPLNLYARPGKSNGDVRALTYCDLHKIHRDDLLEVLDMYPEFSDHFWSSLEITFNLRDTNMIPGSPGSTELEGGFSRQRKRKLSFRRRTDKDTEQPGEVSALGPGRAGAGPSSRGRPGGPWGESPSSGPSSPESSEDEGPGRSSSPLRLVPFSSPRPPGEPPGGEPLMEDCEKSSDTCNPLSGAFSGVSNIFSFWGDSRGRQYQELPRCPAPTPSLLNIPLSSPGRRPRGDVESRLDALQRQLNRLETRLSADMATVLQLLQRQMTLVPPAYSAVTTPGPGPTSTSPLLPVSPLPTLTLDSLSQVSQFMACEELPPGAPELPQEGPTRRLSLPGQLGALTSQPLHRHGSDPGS

| SMILES | hERG current change (%, negative = inhibition) at 1uM [%] |
| --- | --- |
| CCCn1cc(SCC(=O)NC2CCCC2)c2ccccc21 | 11.4 |
| Cc1cc(Oc2ccc(=O)n(C)n2)nc(=S)[nH]1 | 11 |
| CCCc1ccc(-c2c(C)sc(NC(=O)c3ccnn3C)c2C#N)cc1 | 10.6 |
| Cc1ccc(NC(=S)NCCCN2CCOCC2)cc1C | 7.13 |
| COC(=O)c1cc(NC(=S)Nc2cc(Cl)cc(Cl)c2)cc(C(=O)OC)c1 | -4.12 |
| NC(=O)Cc1cn(-c2ncc(C(F)(F)F)cc2Cl)c2ccccc12 | -3.61 |
| O=c1[nH]c(-c2ccccc2)c(-c2ccccc2)nc1[N+](=O)[O-] | 12.1 |
| O=C(NCC1CCCO1)C(c1cccnc1)N(C(=O)Cc1cccs1)c1ccccc1 (centres unmarked) | 13.8 |
| CC(=O)N1CCN(Cc2nc3cc(NC(=O)NC4CCCCC4)ccc3n2C)CC1 | 12.9 |
| Cc1cccc(-n2c(=S)[nH]c3nc4c(cc3c2=O)COC(C)(C)C4)c1 | 11.9 |
| COc1cccc(-c2nc3ccccc3c(=O)n2NC(=O)c2cccnc2Cl)c1 | 16.6 |
| COC(=O)c1cc(Nc2cc(C)c3c(O)cccc3n2)cc(C(=O)OC)c1 | 0.104 |
| CC(=O)NC1(c2ccccc2)CCN(c2cc(C)nc(-c3ccccc3)n2)CC1 | -1.62 |
| CCOc1ccc(/C=C/C(=O)OCC(=O)NCCc2ccc(OCC)c(OCC)c2)cc1OC | -1.72 |
| CCC(C)(C)n1nnnc1C(c1cc2cc(C)ccc2[nH]c1=O)N1CCCC1 (centres unmarked) | -0.91 |
| Cc1ccc(NCc2ccc(Cl)nc2)c(NCc2ccc(Cl)nc2)c1 | 6.92 |
| COc1cc(CNc2ncn[nH]2)cc(Br)c1OC | 11.6 |
| CCOC(=O)C1(CCOC)CCN(C(=O)c2sccc2C)CC1 | 13 |
| CC(=O)CCC(=O)N1CCCC(N2CCN(c3cccc(Cl)c3)CC2)C1 (centres unmarked) | 8 |
| CC(C)(C)NC(=O)NC(=O)CSc1ncc(C(F)(F)F)cc1Cl | 2.07 |
| CC(C)(C)c1ccc(C(=O)NCC(=O)OCCN2C(=O)c3ccccc3C2=O)cc1 | 9.49 |
| O=C(CN(c1cccc(Cl)c1)S(=O)(=O)c1ccc(Cl)cc1)NCc1ccccn1 | -9.69 |
| CC(C)(C)C(=O)Nc1cc(S(=O)(=O)Nc2ccc(Cl)cc2)ccc1Cl | 1.82 |

| SMILES | hERG current change (%, negative = inhibition) at 1uM [%] |
| --- | --- |
| O=[N+]([O-])c1ccc(N2CCN(c3ccccc3O)CC2)c(Cl)c1 | 10.6 |
| COc1ccc(N2C(=O)CC(N3CCC(C(N)=O)CC3)C2=O)cc1 (centres unmarked) | 10.2 |
| O=C(CNC(=O)c1ccc2c(c1)OCCO2)N/N=C/c1ccc(Cl)cc1 | 14.4 |
| CCOc1cc(Br)cc(/C=C2\SC(=Nc3ccccc3)NC2=O)c1O | 19.6 |
| O=C(/C=C/c1ccc(F)cc1)NC(=S)NNC(=O)[C@H]1C[C@@H]1c1ccccc1 | 11.6 |
| COc1ccc(CNC(C)C2COc3ccccc3O2)c(OC)c1.O=C(O)C(=O)O (centres unmarked) | -22.2 |
| Cc1nn(Cc2ccccc2)c(C)c1C(=O)NCCCN1CCCC1=O | -5.45 |
| CCOc1ccc(NC(=O)CSc2nc3c(c(=O)n2C)SC(C)C3)cc1 (centres unmarked) | 9.29 |
| CCN1CCN(c2oc(COc3ccc(-c4ccccc4)cc3)nc2C#N)CC1 | 10.1 |
| COc1cc(NC(=O)c2ccccc2)c(OC)cc1NC(=O)CN1C(=O)NC2(CCCCC2C)C1=O (centres unmarked) | 5.92 |
| Cc1ccc(CSCc2ccc(C(=O)NC3CCCC3)o2)cc1 | -11.2 |
| O=C(COc1ccc(Cl)cc1)NNC(=O)C(=O)N1CCCCC1 | -2.26 |
| O=C(CCn1c(=O)c2cccn2c2ccc(F)cc21)NCc1cccc(F)c1 | 1.76 |
| NC(=O)c1ccccc1[N+](=O)[O-] | 9.84 |
| COc1ccc(Nc2cc(C(=O)NCc3ccccn3)c3ccccc3n2)c(OC)c1 | 16.7 |
| CCC(=NCCc1ccccc1)c1c(O)n(C2CCCCC2)c(=O)[nH]c1=O | 6.79 |
| CC(=O)NC(C)C12CC3CC(CC(C(=O)O)(C3)C1)C2 (centres unmarked) | 15.6 |
| CCOC(=O)N1CCN(C(=O)c2ccc(CNS(=O)(=O)c3ccc(C)cc3)cc2)CC1 | -13.4 |
| O=C(COC(=O)c1cc(S(=O)(=O)N2CCCCC2)ccc1N1CCOCC1)NCCc1ccc(F)cc1 | -1.34 |
| Cn1ncc(Br)c1NC(=O)c1cc(Cl)cc(Cl)c1 | -6.02 |
| O=C(NCCC1=CCCCC1)c1ccc2c(=O)n3c(nc2c1)CCCCC3 | -1.26 |
| CCC(CC)C(=O)Nc1cccc(C(=O)NC(C)(C)C)c1 | 5.75 |
| O=C(Cc1ccc(F)cc1)Nc1ccc(S(=O)(=O)N2CCCCC2)cc1 | 8.53 |

| SMILES | hERG current change (%, negative = inhibition) at 1uM [%] |
| --- | --- |
| O=[N+]([O-])c1cc(-c2ccc(/C=N\n3cnnc3)o2)cc([N+](=O)[O-])c1 | 5.84 |
| O=C(NC(=S)Nc1ccccc1N1CCCC1)c1ccccc1Br | 16.8 |
| CCOC(=O)c1cc2n(c1N)-c1ccccc1C2=O | -2.29 |
| Cc1oc2ccc(OCc3c(F)cccc3Cl)cc2c1C(=O)O | 12 |
| CC1=C(c2ccc(F)cc2)[N+](=O)C(C)(C)N1[O-] | 13.5 |
| CCOC(=O)NNc1ccc(C(F)(F)F)cn1 | 15.1 |
| O=C1CC(c2ccc(S(=O)(=O)NCCOc3ccccc3)cc2)CN1 (centres unmarked) | 11.9 |
| CCN(CC)S(=O)(=O)c1cccc(NC(=O)c2ccc(Br)cc2)c1 | 8.94 |
| O=C(/C=C/c1cccc([N+](=O)[O-])c1)c1ccc2c(c1)OCCO2 | 4.79 |
| COc1ccc(-c2csc3ncnc(N4CCN(S(=O)(=O)c5ccc(Cl)s5)CC4)c23)cc1 | -1.02 |
| COc1ccc(-n2ncc3c(=O)n(Cc4c(F)cccc4Cl)cnc32)cc1 | 11.3 |
| CSc1cccc(CN2CCCC(CO)(Cc3cccc(Cl)c3)C2)c1 (centres unmarked) | -0.44 |
| COc1ccc(CCNC(=O)CS(=O)Cc2nc(-c3ccccc3Cl)oc2C)cc1OC (centres unmarked) | 9.09 |
| COc1ccc(Cc2nnc(NCCO)[nH]c2=O)cc1 | 16.3 |
| C#Cc1ccc(CN2CCN(CCc3ccccc3)C(CCO)C2)cc1 (centres unmarked) | -15.3 |
| CCCN(CC(=O)Nc1ccc(NC(C)=O)cc1)CC(=O)Nc1ccc(F)c(F)c1F | 10.9 |
| Cc1cc(SCC#N)n2nc(C)c(-c3ccc(Cl)cc3)c2n1 | 20.9 |
| Cc1ccc(NC(=O)COC(=O)c2ccco2)cc1 | 10.6 |
| Cc1cc(Br)cn2ccnc12 | 3.34 |
| O=c1[nH]c(=S)[nH]c2c1C(c1ccc(Br)cc1)c1c([nH]c(=S)[nH]c1=O)O2 | 8.87 |
| COc1cccc(C(=O)O/N=C(\N)CS(=O)(=O)c2ccccc2)c1 | 7.62 |
| Cc1cccc(NC(=O)CCSc2nncn2C)c1 | 22.8 |
| O=C(NNc1c2ccccc2nc2ccccc12)c1ccccc1Cl | 10 |

| SMILES | hERG current change (%, negative = inhibition) at 1uM [%] |
| --- | --- |
| Cc1ccsc1C1Nc2ccc3ncccc3c2C2=C1C(=O)CC(C)(C)C2 (centres unmarked) | 15 |
| COc1cccc(COc2ccc(N(C)S(=O)(=O)c3ccccc3)cc2)c1 | 7.66 |
| COc1ccc(S(=O)(=O)N(C)CC(=O)Nc2c(F)cccc2F)cc1 | 13.1 |
| O=[N+]([O-])c1cc2c(cc1/C=N/n1c(-c3ccccc3)n[nH]c1=S)OCO2 | 7.43 |
| CCOC(=O)C1=C(N)Oc2cc(C)oc(=O)c2C12C(=O)N1c3c(cccc32)C(C)CC1(C)C (centres unmarked) | -1.59 |
| COc1ccc(/C=C2/N=C(SC)NC2=O)cc1OC | 6.89 |
| Cc1ccccc1NC1=C(Cl)C(=O)OC1OC(C)C (centres unmarked) | 16.5 |
| c1ccc(-c2nnc(SCCC3OCCCO3)o2)cc1 | 16.4 |
| CC(Nc1nc(-c2ccccc2)nc2ccccc12)c1ccccc1 (centres unmarked) | 4.22 |
| COc1ccc(CCNc2nc(-c3ccc(NC(C)=O)cc3)cs2)cc1OC | 10.6 |
| CN(C(=O)CSc1nnc(-c2cccs2)o1)C1CCS(=O)(=O)C1 (centres unmarked) | 10.3 |
| O=C(NCCCC1CCCC1)C1CCC(=O)N(Cc2ccc(Cl)cc2)C1 (centres unmarked) | -4.04 |
| CCc1ccccc1NC(=O)Cn1nc(C)n2cccc2c1=O | 10.4 |
| COC(=O)c1c(C)[nH]c(C(=O)COC(=O)Cc2ccc3c(c2)OCCO3)c1C | -6.84 |
| CC(C)(C)C1CCC(OC(=O)c2ccncc2)CC1 (centres unmarked) | -7.2 |
| Clc1ccc(OCc2nc3ccccc3[nH]2)cc1 | 14 |
| COc1cccc(NC(=O)CN2C(=O)C3(OCCCO3)c3ccccc32)c1 | 4.62 |
| Cc1ccc(NC(=O)C2CCCN(S(=O)(=O)c3cnc[nH]3)C2)cc1C (centres unmarked) | 4.39 |
| CCn1c(O)c(N=NC(=O)CNC(=O)Cc2ccccc2)c2ccccc21 | 14.8 |
| CC(C)(C)C(=O)NCCc1nc2ccccc2n1CC(=O)c1ccccc1 | 10.1 |
